Experimental data reported in PubChem BioAssay AID1508624 (National Center for Advancing Translational Sciences (NCATS), 2021).
Screen size: about 48,000 compounds; about 120 (0.25%) were called active. Another 4% or so got no clear call; they are omitted. The call rests on the fitted dose curve; in most records, active means well fitted activation curve with a large enough effect; inconclusive means small, poorly fitted or top-dose-only effect, or another doubt; inactive means no such curve, though single readings can be large or run the other way. Some of the results follow.

Test: Primary qHTS for Identification of Small Molecule Activators of Huntingtin-Antisense Promoter Activity; further: nearly all actives have a fitted effect of over 55% in size
Settings: HEK293 HTT-AS promoter firefly luciferase reporter, 24 h; series mostly up to 57.5 µM; activity change, positive = activation: at the top concentration
Summary of the method: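 Firefly luciferase signal from promoter-reporter HEK293 cells was scaled between vehicle (0%) and zero RLU (-100%). Compounds were tested at final concentrations of up to 57.5 uM over 24 h at 37 degrees C. PTC124 at 50 uM final served as control inhibitor.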

Activity change, positive = activation, inactive:
Cc1cc(Nc2cccc(Cl)c2)nc2ccc(NC(=O)c3ccc(F)cc3Cl)cc12 -37.3%
O=C(Nc1ccccc1C(=O)OCc1cc(=O)n2ccsc2n1)c1cccc(F)c1 -34.1%
Cc1ccc2nc(/C(C#N)=C/c3ccc(-c4ccc(F)cc4F)o3)[nH]c2c1 -3.17%
CCOc1ccc(NC(=O)NCCCN2CCN(c3ccc(OC)cc3)CC2)cc1 -16%
O=C(c1ccc(CSc2nc3ccncc3n2Cc2ccccc2F)cc1)N1CCCCC1 14%
CCOc1ccccc1Nc1sc(C(=O)c2ccc(Cl)cc2)c(N)c1C#N -0.403%
COc1ccc2c(c1)C(=O)N(CCc1ccc(S(=O)(=O)NC(=O)NC3CCCCC3)cc1)C(=O)C2(C)C -10.4%
O=C(NCc1ccc(F)cc1)c1cccc(N2CCCS2(=O)=O)c1 -20%
Cc1ccc(-c2cc(C(=O)NCCc3ccccc3)c3ccccc3n2)cc1C 35.2%
Cc1ccccc1NC(=O)Cn1c(=O)n(Cc2ccco2)c(=O)c2cccnc21 -9.05%
CC(C)c1ccc(NC(=O)CNC(=O)Cn2ccc3ccccc3c2=O)cc1 -12.8%
CCc1ccc2c(c1)c(=O)c(C(=O)c1ccc(C)cc1)cn2CC(=O)Nc1ccc2c(c1)OCCO2 -19.1%
Cc1ccc(NC(=O)Cn2c(=O)nc(-c3ccccc3F)c3cc(Cl)ccc32)c(Br)c1 -39.2%
CCOC(=O)c1ccccc1NC(=O)CSc1ncc2c(n1)-c1ccccc1N(CC)S2(=O)=O -13.6%
NS(=O)(=O)Cc1noc2ccccc12 -2.56%
CCC(C)n1c(=N)c(S(=O)(=O)c2ccccc2)cc2c(=O)n3ccccc3nc21 (stereo unspecified) -12.2%
Cc1nn(C)c2c1c(-c1ccccc1)cc(=O)n2CC(=O)NC(C)(C)C -31.5%
COc1cc2nc(SCc3ccc(F)cc3)n3nc(CCn4c(C)nc5ccccc54)nc3c2cc1OC -5.81%
CCOc1ccc(S(=O)(=O)N(CC(=O)NCCSCc2ccccc2)c2ccccc2)cc1 -5.68%
CCOc1ccccc1NC(=O)N1CCN(Cc2cc(=O)n3nc(-c4ccc(C)cc4)sc3n2)CC1 -8.06%
CSc1cccc(NC(=O)c2ccc3c(c2)c(C)c(C)n3Cc2ccc(F)cc2)c1 -25.6%
COc1ccc(CCCc2nnc(SCC(=O)Nc3ccc(C)c(C)c3)o2)cc1 11.6% [at 11.5 µM, percent change from vehicle, -100% = no light]
CCc1ccc(S(=O)(=O)c2cn(C)c3cc(N4CCN(CC)CC4)c(F)cc3c2=O)cc1 -10.1%
Cc1cc(C)c2c(CC(=O)Nc3nnc(CC(C)C)s3)coc2c1 -6.47%
CC(C)NS(=O)(=O)c1ccc(OCC(=O)N2CCN(c3ccccc3F)CC2)cc1 -20.2%
CN(C)CCN(Cc1ccc(Cl)cc1)c1ccccn1 -31.8%
O=C(c1ccc(CS(=O)c2ccccc2Cl)o1)N1CCN(c2ccccc2F)CC1 (stereo unspecified) -37.1%
Cc1ccc(CN2CCC(CNC(=O)Nc3c(C)cccc3C)C2)cc1 (stereo unspecified) -16.6%
COc1ccccc1-c1c(C)nn2c(C(F)(F)F)cc(-c3ccccc3)nc12 -8.67%
CCC(=O)Nc1cccc(-c2cn3c(C)csc3n2)c1 12.2%
O=C(CCC1N=C2c3ccccc3N=C(SCc3cccc(Cl)c3)N2C1=O)NCc1cccs1 (stereo unspecified) 4.86%
COc1cccc(C(=O)N(Cc2cccc(Cl)c2)Cc2ccco2)c1 -28.4%
CC(C)(C)c1ccc(OCC(=O)Nc2c(C(=O)c3ccc(F)cc3)oc3ccccc23)cc1 -3.5%
COc1cc(C(=O)NCCSc2c(-c3ccccc3)[nH]c3ccccc23)cc(OC)c1OC -41.2%
CC1CCN(S(=O)(=O)c2ccc3nc(N4CCN(c5ccccc5)CC4)ccc3c2)CC1 -1.55%
Oc1c(C(c2ccc(Cl)cc2)N2CCOCC2)sc2nc(-c3ccco3)nn12 (stereo unspecified) 1.33%
Fc1cccc(CSc2nc(NCCc3ccccc3)c3ccccc3n2)c1 -23%
COc1ccccc1OCC(=O)Nc1cc(-c2ccc(C)cc2)no1 -0.295%
CC(=O)c1cc(-c2ccc(F)cc2)n(CC(=O)NCc2ccc(C)cc2)c1C -19.2%
COc1cc(NS(=O)(=O)c2cccs2)cc(OC)c1 -14.5%
Cn1c(=O)c(-c2c(Cl)cccc2Cl)cc2cnc(Nc3cccc(C(=O)O)c3)nc21 7.24%
COc1cc(Cl)c(C)cc1NC(=O)NC1COc2ccccc2C1 (stereo unspecified) -23.3%
CCCNC(=O)Cn1c(=O)cc(C)c2c(C)nn(-c3cccc(F)c3)c21 -18.9%
CCc1ccc(-c2ccc3nnc(SCC(=O)Nc4cccc(C(C)=O)c4)n3n2)cc1 -1.48%
Cc1onc(-c2ccccc2)c1C(=O)Cl -1.93%
COc1ccc(CCNC(=O)Cn2c(-c3cccs3)cc3cc(F)ccc32)cc1OC -41.1%
COc1ccc(NC(=O)c2oc3ccccc3c2NC(=O)c2cc(OC)c(OC)c(OC)c2)cc1 -27.2%
COc1ccc(CCNC(=O)CN2C(=O)COc3ccccc32)cc1OC -12.5%
COc1cccc(CNC(=O)c2ccc(CS(=O)c3ccccc3)o2)c1 (stereo unspecified) -21.6%
Cc1cccc(Oc2nc3c(c(=O)n(C)c(=O)n3C)n2C)c1C 6.21%
CCOC(=O)N1CCN(C(=O)c2cnn(-c3cccc(F)c3)c2-n2cccc2)CC1 -10.8%
CCc1ccccc1NC(=O)C(CCSC)NS(=O)(=O)c1ccc2c(c1)oc(=O)n2C (stereo unspecified) -4.33%
N#Cc1c(-c2ccccc2)cc(-c2ccccc2)nc1SCC(=O)Nc1ccc(Cl)cc1 -13.1%
Cc1ccccc1-c1nn2c(=O)cc(CN3CCN(C(=O)c4ccccc4Br)CC3)nc2s1 -11.9%
Cc1cc(C)cc(OCC(=O)NCC2(N3CCOCC3)CCCCC2)c1 -18.1%
COc1ccc([C@@H]2Sc3ccccc3N(CCN(C)C)C(=O)[C@@H]2OC(C)=O)cc1 -10.7%
O=C(Cn1c(SCCOc2ccccc2Cl)nc2ccccc21)N1CCCCC1 -20.4%
CCCc1cc(=O)[nH]c(SCc2nc(-c3ccc(OC)cc3)no2)n1 -12.9%
Cc1cn([C@H]2C[C@H](N=[N+]=[N-])[C@@H](CO)O2)c(=O)[nH]c1=O
COc1ccc(CC(=O)NCCc2csc(-c3cccc(F)c3)n2)cc1OC -16.8%
N#Cc1ccccc1Cn1c(=O)n(-c2ccc(F)c(Cl)c2)c(=O)c2sccc21 -25.4%
Cc1ccc(C)c(NC(=O)Cn2c(=O)n(Cc3ccco3)c(=O)c3ccc(C(=O)NC4CCCC4)cc32)c1 -29%
O=C(C1CCN(c2ncnc3c2nc2n3CCCCC2)CC1)N1CCN(c2ccccc2)CC1 -32.2%
CCOC(=O)c1ccccc1NC(=O)c1sc2ncn(CC)c(=O)c2c1C -8.7%
COc1cccc(-c2nc(CS(=O)(=O)CC(=O)NCCCc3ccccc3)c(C)o2)c1 -15.1%
Cc1ccc(S(=O)(=O)N2CCCc3cc(NC(=O)c4ccc(C(C)(C)C)cc4)ccc32)cc1 -17%
CCN(CC)c1ccc(NC(=O)c2sc3nc(-c4ccccc4)cn3c2C)cc1 -18.5%
Cc1nc(-c2ccc(F)cc2)sc1CCNC(=O)C(=O)Nc1ccc2c(c1)OCO2 -9.26%
CCOC(=O)c1cccc(NC(=O)NCc2ccc3c(c2)CCN3C(=O)CC)c1 -8.28%
CCCn1c2ccccc2c2cnn(CC(=O)NCCc3cc(OC)ccc3OC)c(=O)c21 1.68%
COc1ccc(N2CCN(C(=O)c3nn(C)c4c3CSc3ccccc3-4)CC2)cc1 -9.71%
CCc1ccc(C(=O)c2cn(CC(=O)Nc3ccc(OC)c(Cl)c3)c3nc(C)ccc3c2=O)cc1 -9.02%
CCCN(C(=O)NCc1noc2ccc(C)cc12)c1ccc(Cl)c(Cl)c1 -10%
CC1=C(C(=O)Nc2cccc(C(F)(F)F)c2)C(c2ccccn2)n2ncnc2N1 (stereo unspecified) -11.2%
CCC(=O)Nc1ccccc1-c1nc2ccccc2n(CC(=O)c2ccc(Br)cc2)c1=O -12.6%
Cc1ccc(Cl)cc1NC(=O)Cn1cc(S(=O)(=O)Cc2ccccc2Cl)c2ccccc21 -22.5%
COc1cccc(CN2CCc3nc(N4CCN(C)CC4)ncc3C2)c1 -14.2%
CCCNC(C)C(=O)Nc1c(C)csc1C(=O)OC (stereo unspecified) -6.91%
CCOc1ccc(CCNC(=O)Cc2ccc(NC(=O)N3CCSc4ncccc43)cc2)cc1 -21.8%
COc1ccc(-n2nc(C(=O)N3CCN(c4cccc(C(F)(F)F)c4)CC3)c3c4ccccc4n(C)c3c2=O)cc1Cl -6.02%
COc1cccc(N2CCN(C(=O)Cn3ncc4c5ccccc5n(C)c4c3=O)CC2)c1 -4.78%
Cc1cccc(-c2noc(-c3cc(-c4ccc(F)cc4)n[nH]3)n2)c1 -10.5%
Cc1oc2ncn(C)c(=O)c2c1C(=O)NCc1ccccc1 -8.73%
CNCc1ccc(-c2[nH]c3cc(F)cc4c3c2CCNC4=O)cc1 -6.36%
COc1cc(OC)cc(C(=O)Nc2nc(-c3nnn(-c4ccc(F)c(Cl)c4)c3C)ns2)c1 -48.1%
O=C(CSc1nc(O)c(C/C=C/c2ccccc2)c(=O)[nH]1)Nc1cccc(F)c1 -13%
CC(C)(C)c1ccc(S(=O)(=O)N2CCN(C(=O)c3cc(-c4ccc(Br)cc4)n[nH]3)CC2)cc1 1.54%
O=C(NCc1ccc(Cl)cc1)C1CCN(S(=O)(=O)c2ccc3c(c2)CCCN3C(=O)C2CCC2)CC1 0%
CCOc1ccc(NC(=O)c2noc3c2CSc2ccccc2-3)cc1 14.8%
CCOCCc1nn2c(=O)cc(COC(=O)c3ccco3)nc2s1 -8.08%
COc1cc(-c2noc(-c3ccc(N4CCCCC4)c([N+](=O)[O-])c3)n2)cc(OC)c1OC -6.96%
COc1cccc(CNC(=O)c2nnc(Cc3ccc(Cl)cc3)o2)c1 -8.91%
CCN1CCN(CCCNC(=O)c2ccc3c(c2)sc2nc(-c4ccc(C)cc4)cn23)CC1 -17.9%
O=C(CSc1ccc(-c2cccs2)nn1)Nc1cccc(F)c1 -27.7%
COc1ccccc1N1CCN(c2ncnc3onc(C)c23)CC1 -25.7%
COc1ccc(-c2cc(C)no2)cc1S(=O)(=O)N1CC(C)Oc2ccccc21 (stereo unspecified) -29.8%
